According to the supplement of paper PMC3334620:
Over roughly 33,000 sequences, “E-score (-0.5 to 0.5)” has its median near -0.043; the highest 2% begin near 0.37. This is one part of the list.

target: T1, Upc2 (UniProt Q12151); experiment: PBM E-score (8-mer binding enrichment) (E-score (-0.5 to 0.5)); higher = stronger / more preferred TF binding; most listed sequences are background and not binding sites; conditions: protein concentration: 200 nM; construct: GST-full length
T1 sequence: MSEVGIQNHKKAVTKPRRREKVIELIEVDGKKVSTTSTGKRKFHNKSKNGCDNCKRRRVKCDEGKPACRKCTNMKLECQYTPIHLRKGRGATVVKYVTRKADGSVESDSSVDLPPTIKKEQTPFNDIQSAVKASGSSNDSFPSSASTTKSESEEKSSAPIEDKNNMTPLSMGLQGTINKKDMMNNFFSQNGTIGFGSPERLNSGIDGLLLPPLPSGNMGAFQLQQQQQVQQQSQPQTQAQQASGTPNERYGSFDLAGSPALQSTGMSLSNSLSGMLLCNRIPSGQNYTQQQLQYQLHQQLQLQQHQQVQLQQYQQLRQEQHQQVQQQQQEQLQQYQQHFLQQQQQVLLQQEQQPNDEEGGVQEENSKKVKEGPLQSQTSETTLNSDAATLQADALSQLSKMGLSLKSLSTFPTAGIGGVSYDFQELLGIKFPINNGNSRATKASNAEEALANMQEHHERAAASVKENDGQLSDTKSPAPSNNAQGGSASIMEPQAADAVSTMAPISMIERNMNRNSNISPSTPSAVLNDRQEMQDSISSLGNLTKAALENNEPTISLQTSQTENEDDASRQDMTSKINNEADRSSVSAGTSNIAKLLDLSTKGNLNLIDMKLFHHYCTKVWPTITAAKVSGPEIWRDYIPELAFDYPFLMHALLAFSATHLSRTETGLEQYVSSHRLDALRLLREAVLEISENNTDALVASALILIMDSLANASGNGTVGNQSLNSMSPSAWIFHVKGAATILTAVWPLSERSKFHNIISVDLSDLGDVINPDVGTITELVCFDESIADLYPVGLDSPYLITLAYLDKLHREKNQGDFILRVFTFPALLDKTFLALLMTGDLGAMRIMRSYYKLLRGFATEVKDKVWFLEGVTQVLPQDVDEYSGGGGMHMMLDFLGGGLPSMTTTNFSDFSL
Description: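 Universal 'all 10-mer' protein binding microarrays (Agilent AMADID 015681) probed with GST-tagged S. cerevisiae TFs (full-length or DBD) made by in vitro transcription/translation (PURExpress), about 100-200 nM. Bound TF was detected with fluorescent anti-GST. Each ungapped 8-mer (which stands for itself and its reverse complement) is scored by the PBM enrichment score (E-score), a modified Wilcoxon-Mann-Whitney statistic from -0.5 to +0.5, computed with the Universal PBM Analysis Suite. Scale: above 0.35 generally sequence-specific binding.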

First: ATTCGAAC
Second: GCGCACGC
The “PBM E-score” value of the first is higher: 0.119 for the first, -0.0747 for the second.

Compared with CCAGCAAC, CGGATTTA is lower in “PBM E-score” value: 0.153 for the first, 0.0862 for the second.

Compared with AGAGGCAT, AGACATAC is lower in “PBM E-score” value: 0.0179 for the first, -0.0383 for the second.

Going from ACTCCGGC to GATGCTAA, the “PBM E-score” value rises from -0.0468 to 0.068.

Compared with AAGCATAA, GACAACTA is higher in “PBM E-score” value: -0.118 for the first, -0.0195 for the second.

Going from ATCGTAGC to AAAGAGAC, the “PBM E-score” value falls from 0.356 to -0.0897.

Going from ATGCATCG to AGCGTCCG, the “PBM E-score” value falls from 0.133 to 0.0285.

First: AGTGTGAA
Second: GAATGTTA
The “PBM E-score” value of the first is higher: 0.0175 for the first, -0.00277 for the second.

First: AATTTAGG
Second: ACGGCGAC
The “PBM E-score” value of the first is lower: 0.0945 for the first, 0.142 for the second.

Going from GCACCCAA to ATGGGTTG, the “PBM E-score” value rises from 0.0553 to 0.102.

Compared with CTAAGCAG, TCAATCCA is higher in “PBM E-score” value: -0.156 for the first, 0.0272 for the second.

First: GCGATCAA
Second: GTCATGTA
The “PBM E-score” value of the first is higher: 0.146 for the first, -0.0385 for the second.

Compared with GATTGGCA, CTACCCTC is lower in “PBM E-score” value: -0.107 for the first, -0.244 for the second.

Compared with ACCAGCAA, ACGAGCCT is higher in “PBM E-score” value: 0.0815 for the first, 0.396 for the second.

Going from AGCTAGAC to CGTAGGCC, the “PBM E-score” value falls from 0.0183 to -0.107.

First: GCCCTCGA
Second: AGCGTATC
The “PBM E-score” value of the first is lower: -0.144 for the first, 0.166 for the second.

First: GGACTTAC
Second: ATGAGATA
The “PBM E-score” value of the first is lower: -0.115 for the first, -0.077 for the second.

Going from CCCGTCTC to TCCGAGGA, the “PBM E-score” value rises from 0.0208 to 0.198.

Going from CCGGTCCG to CTCCGGTC, the “PBM E-score” value rises from -0.0341 to -0.0214.

Going from GAATGGCC to CAGTCGTC, the “PBM E-score” value rises from -0.202 to -0.106.

Going from CATCGAGC to CCTCCTGA, the “PBM E-score” value rises from -0.121 to -0.0709.

First: GGCTCACA
Second: GACACGTA
The “PBM E-score” value of the first is lower: -0.122 for the first, 0.117 for the second.

Going from CAGCGTAG to CATGTCGG, the “PBM E-score” value rises from -0.0571 to -0.0532.

First: AAGGACCG
Second: AGCGTCTC
The “PBM E-score” value of the first is higher: -0.107 for the first, -0.245 for the second.

Compared with CATTCAAG, CTACTTAA is lower in “PBM E-score” value: -0.0014 for the first, -0.0179 for the second.

Going from AGTCCTAG to CCTCCGTA, the “PBM E-score” value rises from -0.308 to 0.305.

First: GAGTATGC
Second: TATTTCCA
The “PBM E-score” value of the first is higher: 0.0431 for the first, 0.033 for the second.

Compared with CGGAGCCC, AGAAGACA is higher in “PBM E-score” value: -0.215 for the first, -0.0398 for the second.

Compared with AGGAGAGC, CTATAGCA is lower in “PBM E-score” value: 0.0146 for the first, -0.0859 for the second.

First: AAGCGTTG
Second: ACCGTGAC
The “PBM E-score” value of the first is higher: -0.0869 for the first, -0.189 for the second.

First: ACTTGACC
Second: CGTGGTAC
The “PBM E-score” value of the first is lower: -0.0255 for the first, 0.0748 for the second.

First: AAAAATGG
Second: TCCATACA
The “PBM E-score” value of the first is higher: -0.0582 for the first, -0.0698 for the second.

Compared with ATACAGTA, CCGGGCAG is lower in “PBM E-score” value: 0.15 for the first, 0.0011 for the second.

Compared with CAGCCGCG, GCGGAAGC is higher in “PBM E-score” value: -0.0294 for the first, -0.0169 for the second.

First: AGTTGGCA
Second: ACTTCACT
The “PBM E-score” value of the first is higher: 0.0278 for the first, -0.196 for the second.

First: AATAAGGA
Second: ATTTAAAG
The “PBM E-score” value of the first is lower: -0.11 for the first, -0.0885 for the second.

Compared with GCAATGAA, GTGATAGA is lower in “PBM E-score” value: 0.136 for the first, 0.0335 for the second.

First: CATTCCAC
Second: CTGCTCAA
The “PBM E-score” value of the first is lower: -0.133 for the first, -0.0997 for the second.

Compared with AACCATAG, GGCAAGCA is higher in “PBM E-score” value: -0.204 for the first, -0.0342 for the second.

First: ACTGTGAC
Second: GGCTTAGA
The “PBM E-score” value of the first is higher: -0.121 for the first, -0.264 for the second.

Going from AACTCCAG to CTGGGACC, the “PBM E-score” value rises from -0.142 to -0.132.

Compared with CCGCGATC, TGGACTAA is higher in “PBM E-score” value: -0.0572 for the first, 0.0432 for the second.

First: ACACACGT
Second: AGCAAAAA
The “PBM E-score” value of the first is higher: -0.0788 for the first, -0.127 for the second.
